Results are given in words; binding and its absence hold for the method and conditions named. In cells and extracts the contact can be indirect. Some binding calls cover weakened binding; strength is not graded here. For some assays here: Where a sequence is shown, tags or fusion partners need not be part of it.
Experiments:
[1] = molecular target: T1, GST-tagged C9orf72 long protein isoform (GST-C9L) (human) (UniProt Q96LT7); assay: pull-down; 1 µg GST, GST-C9S or GST-C9L on glutathione magnetic beads, incubated with 1 mL WT HCT116 cell lysate up to 4 h at 4°C; washes with 400 mM NaCl, 0.6% Triton X-100; blots for GST and eIF2α; only the target purified
T1 sequence: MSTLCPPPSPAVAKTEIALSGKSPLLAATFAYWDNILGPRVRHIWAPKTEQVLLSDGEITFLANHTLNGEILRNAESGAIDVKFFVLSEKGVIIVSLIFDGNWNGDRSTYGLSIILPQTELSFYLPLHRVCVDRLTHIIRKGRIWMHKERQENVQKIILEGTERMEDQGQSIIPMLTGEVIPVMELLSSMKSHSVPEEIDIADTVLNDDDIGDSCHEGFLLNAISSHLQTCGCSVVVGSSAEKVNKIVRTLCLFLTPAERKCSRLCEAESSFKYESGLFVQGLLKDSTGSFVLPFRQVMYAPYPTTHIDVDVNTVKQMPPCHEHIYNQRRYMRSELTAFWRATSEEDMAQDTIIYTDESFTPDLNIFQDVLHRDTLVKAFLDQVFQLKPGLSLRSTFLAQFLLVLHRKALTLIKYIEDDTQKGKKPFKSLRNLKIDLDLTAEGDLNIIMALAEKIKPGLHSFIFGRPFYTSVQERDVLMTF

Sequences of proteins named here, by UniProt entry; tags and fusion partners are left off.
UniProt P68101: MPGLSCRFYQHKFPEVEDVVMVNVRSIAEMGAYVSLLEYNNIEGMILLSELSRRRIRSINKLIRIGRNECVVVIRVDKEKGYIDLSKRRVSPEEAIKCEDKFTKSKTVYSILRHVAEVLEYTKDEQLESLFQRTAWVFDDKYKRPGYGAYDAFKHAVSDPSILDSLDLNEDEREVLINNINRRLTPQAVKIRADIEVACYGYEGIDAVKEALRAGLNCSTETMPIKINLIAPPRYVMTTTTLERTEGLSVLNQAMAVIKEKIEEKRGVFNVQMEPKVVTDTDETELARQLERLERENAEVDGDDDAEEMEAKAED
UniProt P05198: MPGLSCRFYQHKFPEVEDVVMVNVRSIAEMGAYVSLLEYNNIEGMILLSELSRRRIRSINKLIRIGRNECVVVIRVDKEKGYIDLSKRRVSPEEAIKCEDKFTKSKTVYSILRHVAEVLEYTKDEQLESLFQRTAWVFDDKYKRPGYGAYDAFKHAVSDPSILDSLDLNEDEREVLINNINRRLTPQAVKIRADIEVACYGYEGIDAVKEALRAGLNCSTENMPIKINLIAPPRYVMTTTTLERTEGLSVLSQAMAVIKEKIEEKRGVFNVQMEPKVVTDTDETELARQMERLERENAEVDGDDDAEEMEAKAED

[2] = molecular target: T2, GST-tagged C9orf72 short protein isoform (GST-C9S) (human) (UniProt Q96LT7); assay: as above
T2 sequence: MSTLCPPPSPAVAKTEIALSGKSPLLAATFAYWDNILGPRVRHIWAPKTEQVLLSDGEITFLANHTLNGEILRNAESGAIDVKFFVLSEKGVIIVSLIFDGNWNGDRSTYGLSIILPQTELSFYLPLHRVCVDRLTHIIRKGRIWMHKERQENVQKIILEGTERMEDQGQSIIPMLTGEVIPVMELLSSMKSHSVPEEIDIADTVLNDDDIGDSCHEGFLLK

[3] = molecular target: T3, Flag-tagged C9orf72 short isoform (Flag-C9S) (human) (UniProt Q96LT7); assay: co-IP; lysates of HeLa cells overexpressing Flag, Flag-C9S, Flag-C9T or Flag-C9L, under basal conditions or SA stress (0.5 h, 0.2 mM SA) with or without 1 h recovery; Flag antibody on Protein A/G magnetic beads; blots for Flag, eIF2α, p62
T3 sequence: T2 sequence

[4] = molecular target: T4, Flag-tagged C9orf72 long isoform (Flag-C9L) (human) (UniProt Q96LT7); assay: as above
T4 sequence: T1 sequence

[5] = molecular target: T5, Flag-C9orf72 (long isoform) (human) (UniProt Q96LT7); assay: co-IP; lysates of HEK-293T cells overexpressing Flag-tag or Flag-C9orf72 (long isoform); Flag antibody on Protein A/G magnetic beads; blots for Flag and eIF2α
T5 sequence: T1 sequence

[6] = molecular target: T5, Flag-C9orf72 (long isoform) (human); assay: co-IP; immunoprecipitation of Flag-C9orf72; eIF2α and eIF2B5 looked for in the precipitate (Figure S6; cell line not shown)
[7] = molecular target: eIF2α, endogenous in rat cerebral cortex and spleen (rat (endogenous in Sprague-Dawley rat tissue)) (UniProt P68101); assay: co-IP; endogenous eIF2α precipitated from cerebral cortex or spleen lysates of WT or C9orf72-null (KO-7, KO-16) rats with an eIF2α antibody on Protein A/G magnetic beads; blots for C9orf72 or eIF2B5
[8] = molecular target: eIF2α, endogenous in HCT116 (human (endogenous in HCT116)) (UniProt P05198); assay: co-IP; endogenous eIF2α or p-eIF2α (S51) precipitated from WT or C9orf72-/- (H1-3, 63-1) HCT116 lysates with an eIF2α or p-eIF2α (S51) antibody on Protein A/G magnetic beads; blot for C9orf72
[9] = molecular target: p-eIF2α (S51), endogenous in HCT116 (human (endogenous in HCT116)) (UniProt P05198); assay: as above

eIF2α, endogenous in HCT116 (from UniProt P05198 1-315)
binding [1]: binds | binding [2]: binds

eIF2α, endogenous in HeLa (from UniProt P05198 1-315)
binding [3]: binds | binding [4]: binds

eukaryotic initiation factor 2 subunit alpha (eIF2α), endogenous in HEK-293T (from UniProt P05198 1-315)
binding [5]: binds | binding [6]: binds

p62, endogenous in HeLa (from UniProt Q13501 1-440)
binding [3]: no binding

B1: C9orf72 (rat C9orf72 ortholog, RGD1359108), endogenous in rat cerebral cortex and spleen (protein, UniProt Q66HC3 1-481)
chain: MSTICPPPSPAVAKTEIALSGESPLLAATFAYWDNILGPRVRHIWAPKTDQVLLSDGEITFLANHTLNGEILRNAESGAIDVKFFVLSEKGVIIVSLIFDGNWNGDRSTYGLSIILPQTELSFYLPLHRVCVDRLTHIIRKGRIWMHKERQENVQKIVLEGTERMEDQGQSIIPMLTGEVIPVMELLASMRSHSVPEDLDIADTVLNDDDIGDSCHEGFLLNAISSHLQTCGCSVVVGSSAEKVNKIVRTLCLFLTPAERKCSRLCEAESSFKYESGLFVQGLLKDATGSFVLPFRQVMYAPYPTTHIDVDVNTVKQMPPCHEHIYNQRRYMRSELTAFWRATSEEDMAQDTIIYTDESFTPDLNIFQDVLHRDTLVKAFLDQVFHLKPGLSLRSTFLAQFLLILHRKALTLIKYIEDDTQKGKKPFKSLRNLKIDLDLTAEGDLNIIMALAEKIKPGLHSFIFGRPFYTSVQERDVLMTF
binding [7]: binds

B2: eIF2B5, endogenous in rat cerebral cortex and spleen (protein, UniProt Q64350 1-716)
chain: MAATAAVPSAVGGRANKRGGGSGGGGTQGAEEEPPPPLQAVLVADSFDRRFFPISKDQPRVLLPLANVALIDYTLEFLTATGVQETFVFCCWKAAQIKEHLQKSKWCHPTSLNVVRIITSDLYRSLGDVLRDVDAKALVRSDFLLIYGDVVSNINISKALEEHRLRRKLEKNVSVMTMVFKESSPSHPTRCHEDNVVLAVDSTTNRILHFQKTQGLRHFSFPLGLFQGSLDGVEIRYDLLDCHISICSPQVAQLFTDNFDYQTRDDFVRGLLVNEEILGNQIHLHVTSREYGARVSNLHMYSAVCADVIRRWVYPLTPEVNFTDSSTQSYTHSRHNIYRGPEVSLGHGSVLEENVLLGAGTVVGSNCSITNSVIGPNCHIGDNVVLDQAYLWQGVRVAAGAQIHQSLLCDRAEVKERVILKPHCVLTSQVVVGPDIILPEGSVISLHPPDAEEDEDDGQFSDDSGADQEKEKVKLKGYNPAEVGPEGQGYLWKAEDVDEKEDEELRQSLWGLMINMEEESETESERSVDPEELDSRAGSPQLDDIRVFQNEVLGTLQRGREENISCDNLVLEINSLKYAYNISLKEVMQVLSHVVLEFPLQQVDGVLDPNRYCALLLPLLKAWSPVFRNYIKRAADHLEALAAIEDFFLEHETLVPSLAKVLMAFYQLEILAEETILSWFSQRDITDKGQQLRKNQQLQRFIQWLREAEEESSDDD
binding [7]: binds

B3: C9orf72, endogenous in HCT116 (protein, UniProt Q96LT7 1-481)
chain: T1 sequence
binding [8]: binds | binding [9]: binds

— paper PMC9691347, “C9orf72 regulates the unfolded protein response and stress granule formation by interacting with eIF2α” (Theranostics, 2022)
